26 compounds from publication PMC4336329 (PLoS ONE, 2015) can be followed below.

About 2,200 (0.71%) of roughly 310,000 compounds showed an effect of 50% or more. Effects have a minus sign here. This is one part of the list.

This assay deals with human ether-à-go-go-related gene (hERG) potassium channel (human, UniProt Q12809). In words: primary screen, population patch clamp on CHO cells stably expressing hERG.
Sequence of human ether-à-go-go-related gene (hERG) potassium channel (Q12809 whole entry, looked up): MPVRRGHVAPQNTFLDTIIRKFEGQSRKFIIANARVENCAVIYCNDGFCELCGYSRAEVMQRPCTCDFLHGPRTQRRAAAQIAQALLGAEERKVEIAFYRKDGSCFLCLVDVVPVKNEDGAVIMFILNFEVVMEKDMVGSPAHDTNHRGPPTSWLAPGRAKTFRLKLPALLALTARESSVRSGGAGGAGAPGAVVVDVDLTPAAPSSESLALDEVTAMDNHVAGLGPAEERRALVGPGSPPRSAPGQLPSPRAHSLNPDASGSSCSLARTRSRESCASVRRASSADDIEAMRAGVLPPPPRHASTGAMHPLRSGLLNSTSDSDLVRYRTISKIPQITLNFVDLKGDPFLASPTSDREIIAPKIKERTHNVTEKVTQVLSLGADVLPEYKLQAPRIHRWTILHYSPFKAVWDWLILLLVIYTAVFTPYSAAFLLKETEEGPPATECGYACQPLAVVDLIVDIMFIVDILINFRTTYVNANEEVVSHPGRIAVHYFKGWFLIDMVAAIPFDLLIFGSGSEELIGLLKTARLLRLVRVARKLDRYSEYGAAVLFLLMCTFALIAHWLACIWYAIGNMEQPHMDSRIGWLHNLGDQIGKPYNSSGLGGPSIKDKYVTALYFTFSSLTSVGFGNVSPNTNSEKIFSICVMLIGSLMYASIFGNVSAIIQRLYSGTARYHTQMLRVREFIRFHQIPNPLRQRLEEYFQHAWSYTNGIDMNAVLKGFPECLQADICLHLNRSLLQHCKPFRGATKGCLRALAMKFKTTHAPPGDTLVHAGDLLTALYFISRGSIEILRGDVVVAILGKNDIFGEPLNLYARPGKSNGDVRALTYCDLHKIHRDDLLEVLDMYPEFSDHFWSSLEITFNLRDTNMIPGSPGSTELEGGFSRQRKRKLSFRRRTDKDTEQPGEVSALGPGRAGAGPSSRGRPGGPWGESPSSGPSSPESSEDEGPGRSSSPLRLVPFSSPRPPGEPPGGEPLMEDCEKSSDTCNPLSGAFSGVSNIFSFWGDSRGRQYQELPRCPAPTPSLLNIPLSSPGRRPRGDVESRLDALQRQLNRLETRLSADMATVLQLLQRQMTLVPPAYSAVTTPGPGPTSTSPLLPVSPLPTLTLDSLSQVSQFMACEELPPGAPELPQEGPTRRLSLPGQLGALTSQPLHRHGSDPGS
As for `COc1ccc2nc(C)cc(C(=O)O)c2c1`, the “hERG current change (%, negative = inhibition) at 1uM” value worked out at 8.4%.

Turning to `COc1ccc(-c2noc(CN(C)C(=O)CCN3C(=O)[C@H]4CC=CC[C@H]4C3=O)n2)cc1`, the “hERG current change (%, negative = inhibition) at 1uM” value is 12.6%.

Take `COc1ccc(CCNC(=O)NC2CCCCC2)cc1`: the “hERG current change (%, negative = inhibition) at 1uM” value was -11.8%.

Turning to `O=c1c2ccccc2c2ccccc2c(=O)n1CC1CCCO1` (centres unmarked), the “hERG current change (%, negative = inhibition) at 1uM” value was 6.13%.

With `COc1cccc2cc(C(C)N(CCCN3CCOCC3)C(=S)Nc3ccccc3C)oc12` (centres unmarked), the “hERG current change (%, negative = inhibition) at 1uM” value amounted to 6.27%.

For `Cc1ccc2c(c1)c(CC(=O)Nc1ccc(F)cc1)c(C(=O)O)n2C`, the “hERG current change (%, negative = inhibition) at 1uM” value is 6.32%.

Take `CCN(CC)CCCNC(=O)c1ccc2c3n(nc2c1)-c1ccc(Cl)cc1CO3`: the “hERG current change (%, negative = inhibition) at 1uM” value is reported as -4.38%.

With `COC(=O)C1=C(C)Nc2sc(C(N)=O)c(N)c2C1c1ccncc1` (centres unmarked), the “hERG current change (%, negative = inhibition) at 1uM” value is 13%.

`Cc1c2ccccc2c(C)c2c1ccc1ccccc12`: the “hERG current change (%, negative = inhibition) at 1uM” value is recorded as -3.55%.

Consider `CCn1nc(C)c(Br)c1Nc1ccc(Br)cc1`, for which the “hERG current change (%, negative = inhibition) at 1uM” value is listed as 23.2%.

As for `CC(c1ccccc1F)n1cc(C(=O)NCCCc2nc3ccccc3[nH]2)nn1` (centres unmarked), the “hERG current change (%, negative = inhibition) at 1uM” value is reported as 26.3%.

In the case of `CC(NCCS(=O)(=O)c1ccc(Cl)cc1)c1cccc(Cl)c1` (centres unmarked), the “hERG current change (%, negative = inhibition) at 1uM” value is recorded as 10.9%.

Consider `CSc1nc2c(cnn2-c2ccccc2)c(=O)n1N`, for which the “hERG current change (%, negative = inhibition) at 1uM” value is -10.2%.

Consider `CCOc1ccc(NC(=O)COc2ccc(-n3cnnn3)cc2)cc1`, for which the “hERG current change (%, negative = inhibition) at 1uM” value is given as 4.6%.

Regarding `COc1ccc(OCC(O)CNC(=O)c2cccs2)cc1` (centres unmarked), the “hERG current change (%, negative = inhibition) at 1uM” value is given as 14.6%.

Consider `CC(=O)C1=C(C)Nc2ncnn2C1c1ccc(Br)cc1` (centres unmarked), for which the “hERG current change (%, negative = inhibition) at 1uM” value is on record as 10%.

On to `CCCCCC(=O)N1CC2(CC(c3cccc(NC(=O)[C@@H]4CCC(=O)N4)c3)=NO2)C[C@@H]1C(N)=O` (some centres unmarked), for which the “hERG current change (%, negative = inhibition) at 1uM” value is 11.9%.

As to `O=C1C2CCCN2C(c2ccc(F)cc2)N1c1nccs1` (centres unmarked), the “hERG current change (%, negative = inhibition) at 1uM” value was 7.68%.

For `O=C(NCc1cccc(Cl)c1)c1cccnc1`, the “hERG current change (%, negative = inhibition) at 1uM” value was 9.87%.

In the case of `Cc1cc(=O)oc2cc(NC(=O)C(C)Oc3cccc(Cl)c3)ccc12` (centres unmarked), the “hERG current change (%, negative = inhibition) at 1uM” value was found to be 15.4%.

With `CCCOc1ccc(CSc2nc3ccccc3[nH]2)cc1`, the “hERG current change (%, negative = inhibition) at 1uM” value is listed as -0.551%.

For `c1ccc(Nc2nc(N3CCCCC3)nc(N3CCCCC3)n2)cc1`, the “hERG current change (%, negative = inhibition) at 1uM” value is on record as 2.56%.

As to `CCN(CC(=O)Nc1c(F)cccc1F)C(=O)C1=COCCO1`, the “hERG current change (%, negative = inhibition) at 1uM” value is on record as 0.851%.

As for `N#CCCN1CCN(S(=O)(=O)c2ccc(S(=O)(=O)NC3CCCCC3)cc2)CC1`, the “hERG current change (%, negative = inhibition) at 1uM” value is given as 11.3%.

On to `CCOC(=O)Cn1cc(C(=O)c2ccccc2F)c2ccccc21`, for which the “hERG current change (%, negative = inhibition) at 1uM” value is listed as 10.4%.

As to `Cc1ccc2c(cnn2C(=O)CCCC(=O)NC(C)c2ccccc2)c1` (centres unmarked), the “hERG current change (%, negative = inhibition) at 1uM” value was determined as 7.58%.
